# Test results from the supplement of paper PMC4967469.
# pIC50: −log10 of the molar value. By IC50 is meant the dose at which the fit gives 50% viability; a limit (>, <) means that the fit lies beyond the doses tested. AUC is the area under the same curve over the 256-fold range up to the top dose, as a fraction; values near 1 show little effect. Any top dose called inferred was derived from the fitted curves, not read from the paper. For some of these results: An entry number marks a drug with two screens in the source, which often give different values.
# Columns and labels:
# AKT inhibitor VIII = compound: O=c1[nH]c2ccccc2n1C1CCN(Cc2ccc(-c3[nH]c4cc5ncnc5cc4nc3-c3ccccc3)cc2)CC1 [AKT inhibitor VIII]; experiment: Viability of human cancer cell lines after 72 h of drug (GDSC screen); settings: top dose inferred
# Experimental: (§1)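 Human cancer cell lines in 384-well plates, medium with 10% serum, drug for 72 h over a 256-fold dose range (nine 2-fold or five 4-fold steps up to the top dose). Adherent lines were fixed and stained with the nucleic acid dye Syto60, suspension lines read with resazurin; signal relative to control wells, capped at 0 and 100%. One two-parameter sigmoid per drug and line, fitted in a mixed model over all curves with the slope shared within a line.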
# AICAR = compound: NC(=O)c1ncn([C@@H]2O[C@H](CO)[C@@H](O)[C@H]2O)c1N [AICAR]; experiment: as above; settings: top dose 2000 µM; top dose inferred
# Experimental: as §1
# [1] = top dose 2.56 µM, screen: GDSC drug entry 171
# [2] = top dose 10.24 µM, screen: GDSC drug entry 228
Cell Line,AUC (AKT inhibitor VIII; [1]),pIC50 (AKT inhibitor VIII; [1]),AUC (AKT inhibitor VIII; [2]),pIC50 (AKT inhibitor VIII; [2]),AUC (AICAR),pIC50 (AICAR)
"NCI-H520 (lung squamous cell carcinoma, adherent)",0.802,5.88,0.55,6.05,0.792,3.03
"NCI-H524 (small cell lung carcinoma, suspension)",0.99,< 5.59,0.903,< 4.99,0.605,3.63
"NCI-H526 (small cell lung carcinoma, suspension)",0.971,< 5.59,0.834,5.20,0.651,3.49
"NCI-H596 (lung adenocarcinoma, adherent)",0.928,< 5.59,0.842,< 4.99,0.896,< 2.70
"NCI-H630 (large intestine, adherent)",0.88,< 5.59,0.93,< 4.99,0.855,2.75
"NCI-H647 (non-small cell lung carcinoma, adherent)",0.917,< 5.59,0.784,5.34,0.873,< 2.70
"NCI-H650 (lung adenocarcinoma, adherent)",0.975,< 5.59,0.918,< 4.99,0.913,< 2.70
"NCI-H661 (large cell lung carcinoma, adherent)",0.893,< 5.59,0.908,< 4.99,0.883,< 2.70
"NCI-H716 (large intestine, suspension)",0.982,< 5.59,0.699,5.57,0.597,3.61
"NCI-H727 (lung carcinoid, adherent)",0.932,< 5.59,0.91,< 4.99,0.928,< 2.70
"NCI-H810 (large cell lung carcinoma, adherent)",0.977,< 5.59,0.91,< 4.99,0.948,< 2.70
"NCI-H838 (lung adenocarcinoma, adherent)",0.953,< 5.59,0.979,< 4.99,0.87,2.70
"NCI-H841 (small cell lung carcinoma, adherent)",0.985,< 5.59,0.873,5.00,0.987,< 2.70
"NCI-H847 (small cell lung carcinoma, adherent)",0.917,< 5.59,0.861,5.21,0.837,3.00
"NCI-H1048 (small cell lung carcinoma, adherent)",0.96,< 5.59,0.773,5.45,0.941,< 2.70
"NCI-H1092 (small cell lung carcinoma, suspension)",0.939,< 5.59,0.93,< 4.99,0.89,< 2.70
"NCI-H1155 (large cell lung carcinoma, suspension)",0.993,< 5.59,0.906,5.02,0.831,3.01
"NCI-H1304 (small cell lung carcinoma, suspension)",0.982,< 5.59,0.919,< 4.99,0.81,2.94
"NCI-H1395 (lung adenocarcinoma, adherent)",0.973,< 5.59,0.79,5.20,0.972,< 2.70
"NCI-H1417 (small cell lung carcinoma, suspension)",0.981,< 5.59,0.861,< 4.99,0.651,3.45
"NCI-H1435 (lung adenocarcinoma, semi-adherent)",0.944,< 5.59,0.966,< 4.99,0.88,2.77
"NCI-H1436 (small cell lung carcinoma, suspension)",0.965,< 5.59,0.863,< 4.99,0.961,< 2.70
"NCI-H1437 (lung adenocarcinoma, adherent)",0.787,5.93,0.59,5.94,0.818,2.93
"NCI-H1563 (lung adenocarcinoma, adherent)",0.743,6.03,0.564,6.01,0.985,< 2.70
"NCI-H1568 (lung adenocarcinoma, adherent)",0.948,< 5.59,0.937,< 4.99,0.809,2.86
"NCI-H1581 (large cell lung carcinoma, semi-adherent)",0.99,< 5.59,0.915,< 4.99,0.906,< 2.70

Cell Line,AUC (AKT inhibitor VIII; [1]),pIC50 (AKT inhibitor VIII; [1]),AUC (AKT inhibitor VIII; [2]),pIC50 (AKT inhibitor VIII; [2]),AUC (AICAR),pIC50 (AICAR)
"NCI-H1623 (lung adenocarcinoma, adherent)",0.935,< 5.59,0.959,< 4.99,0.945,< 2.70
"NCI-H1648 (lung adenocarcinoma, adherent)",0.894,< 5.59,0.826,5.17,0.852,2.77
"NCI-H1651 (lung adenocarcinoma, adherent)",0.936,< 5.59,0.987,< 4.99,0.949,< 2.70
"NCI-H1666 (lung adenocarcinoma, semi-adherent)",0.987,< 5.59,0.956,< 4.99,0.872,< 2.70
"NCI-H1688 (small cell lung carcinoma, adherent)",0.943,< 5.59,0.843,5.08,0.917,< 2.70
"NCI-H1693 (lung adenocarcinoma, adherent)",0.947,< 5.59,0.967,< 4.99,0.855,< 2.70
"NCI-H1694 (small cell lung carcinoma, suspension)",0.989,< 5.59,0.864,5.05,0.917,< 2.70
"NCI-H1703 (lung adenocarcinoma, adherent)",0.926,< 5.59,0.828,5.08,0.915,< 2.70
"NCI-H1734 (lung adenocarcinoma, adherent)",0.925,< 5.59,0.904,< 4.99,0.882,< 2.70
"NCI-H1755 (lung adenocarcinoma, adherent)",0.746,6.03,0.535,6.09,0.883,< 2.70
"NCI-H1781 (lung adenocarcinoma, adherent)",0.96,< 5.59,0.831,5.19,0.954,< 2.70
"NCI-H1792 (lung adenocarcinoma, adherent)",0.968,< 5.59,0.805,5.34,0.857,2.86
"NCI-H1836 (small cell lung carcinoma, suspension)",0.981,< 5.59,0.957,< 4.99,0.927,< 2.70
"NCI-H1838 (lung adenocarcinoma, adherent)",0.983,< 5.59,0.924,< 4.99,0.96,< 2.70
"NCI-H1869 (lung squamous cell carcinoma, adherent)",0.985,< 5.59,0.821,5.16,0.779,3.03
"NCI-H1876 (small cell lung carcinoma, adherent)",0.987,< 5.59,0.935,< 4.99,0.924,< 2.70
"NCI-H1944 (lung adenocarcinoma, adherent)",0.935,< 5.59,0.635,5.81,0.967,< 2.70
"NCI-H1963 (small cell lung carcinoma, suspension)",0.986,< 5.59,,,0.986,< 2.70
"NCI-H1975 (lung adenocarcinoma, adherent)",0.869,< 5.59,0.867,< 4.99,0.761,3.09
"NCI-H1993 (lung adenocarcinoma, adherent)",0.942,< 5.59,0.66,5.69,0.98,< 2.70
"NCI-H2009 (lung adenocarcinoma, adherent)",0.891,< 5.59,0.987,< 4.99,0.782,3.05
"NCI-H2023 (lung adenocarcinoma, adherent)",0.977,< 5.59,0.848,< 4.99,0.789,2.95
"NCI-H2029 (small cell lung carcinoma, adherent)",0.992,< 5.59,0.962,< 4.99,0.989,< 2.70
"NCI-H2052 (mesothelioma, adherent)",0.979,< 5.59,0.939,< 4.99,0.849,< 2.70
"NCI-H2081 (small cell lung carcinoma, suspension)",0.985,< 5.59,0.87,< 4.99,0.796,3.00
